According to PubChem BioAssay AID588591 (National Center for Advancing Translational Sciences (NCATS), 2011):
In all, about 390,000 compounds went through this assay and about 4,700 (1.2%) were called active. Inconclusive means that the source gave no clear call. Such entries were picked first, then a sample of the others. Calls come from the whole dose curve; as a rule, active = well fitted inhibition curve with a large enough effect; inconclusive = small, poorly fitted or top-dose-only effect, or another doubt; inactive = no such curve, though single readings can be large or run the other way. Where the call is inconclusive, the potency comes from a doubtful curve fit.

Biological target: DNA polymerase eta (Homo sapiens) (UniProt Q9Y253)
Assay: qHTS for Inhibitors of Polymerase Eta
Details: recombinant Pol eta, fluorescent DNA replication assay; series mostly up to 114 µM; activity change, negative = inhibition: at the top concentration
How it was run: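 Pol eta (10 nM) was preincubated with compounds for 15 min at room temperature, after which fluorescent replication substrate (50 nM final) was added to start the reaction. Fluorescence was read kinetically at 0 and 10 min.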
% is set by controls: 0 for no effect and ±100 for the full control effect; potency is the fitted concentration of half-maximal effect; tags give direction and shape of the fitted curve.

Chain of UniProt Q9Y253 (Q9Y253 whole entry, looked up): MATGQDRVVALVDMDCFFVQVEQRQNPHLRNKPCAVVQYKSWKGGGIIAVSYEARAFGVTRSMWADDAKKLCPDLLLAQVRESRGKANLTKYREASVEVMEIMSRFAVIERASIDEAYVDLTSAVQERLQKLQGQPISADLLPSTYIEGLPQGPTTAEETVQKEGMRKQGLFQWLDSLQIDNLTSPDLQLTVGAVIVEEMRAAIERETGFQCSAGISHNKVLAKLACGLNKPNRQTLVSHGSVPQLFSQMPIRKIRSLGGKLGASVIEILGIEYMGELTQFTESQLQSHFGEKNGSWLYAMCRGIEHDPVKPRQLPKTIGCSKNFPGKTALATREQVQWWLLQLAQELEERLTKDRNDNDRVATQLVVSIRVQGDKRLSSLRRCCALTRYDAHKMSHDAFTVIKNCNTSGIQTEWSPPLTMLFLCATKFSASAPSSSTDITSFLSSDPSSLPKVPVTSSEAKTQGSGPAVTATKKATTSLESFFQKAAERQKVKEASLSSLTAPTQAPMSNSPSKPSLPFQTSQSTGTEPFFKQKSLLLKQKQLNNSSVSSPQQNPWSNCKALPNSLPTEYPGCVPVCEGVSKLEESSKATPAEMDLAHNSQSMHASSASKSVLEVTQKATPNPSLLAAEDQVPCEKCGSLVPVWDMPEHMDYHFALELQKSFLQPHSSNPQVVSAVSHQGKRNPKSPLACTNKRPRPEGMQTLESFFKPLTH

SMILES | Potency | activity change, negative = inhibition
Cc1ccsc1CCN1C(=O)N(c2ccc(F)cc2)C(=O)C1CC(=O)Nc1ccccc1 (centres undefined) | inconclusive: 50.1 µM [inhibitor, partial curve, poor fit] | –
CSc1sccc1/C=N/O | – | inactive: -4.09%
CCc1ccc(NC(=O)c2c(C(=O)Nc3ccccc3)sc3nc(C)cc(=O)n23)cc1 | inconclusive: 100 µM [inhibitor, partial curve, poor fit] | –
Cc1cccc(C(=O)O[C@@H]2[C@H](Cc3ccccc3)NS(=O)(=O)[C@H]3C[C@@H]4C=C[C@]23O4)c1 | – | inactive: -11.1%
COc1ccc(CNC(=O)C2CCN(S(=O)(=O)c3ccc4nc5c(c(C(=O)O)c4c3)CC(C)CC5)CC2)cc1 (centres undefined) | inconclusive: 56.2 µM [inhibitor, partial curve, poor fit] | –
O=C(c1ccc(-c2ccc([N+](=O)[O-])cc2)o1)N1CCN(S(=O)(=O)c2cccs2)CC1 | inconclusive: 11.2 µM [inhibitor, partial curve, poor fit] | –
Cc1nc2scc(-c3ccccc3)c2c(=O)n1N=C1C=CC(=O)C=C1 | – | inactive: -3.36%
CCOC(=O)c1c(CSc2ccccc2)n(C)c2cc(Br)c(OCC(O)CNC(CO)(CO)CO)cc12 (centres undefined) | inconclusive: 22.4 µM [inhibitor, partial curve, poor fit] | –
O=C(Cn1nc(Cl)nc1Cl)c1cc2ccccc2oc1=O | inconclusive: 28.2 µM [inhibitor, single point] | –
COc1cc(/C=C(/C#N)c2nc3ccccc3[nH]2)ccc1OCc1ccc(C(=O)O)o1 | active: 5.62 µM | –
C=CCn1c(SCC(=O)NCC2CCCO2)nc2scc(-c3ccccc3)c2c1=O (centres undefined) | – | inactive: -13.2%
COC(=O)c1ccc(CC(=O)c2ccc(O)cc2O)o1 | inconclusive: 35.5 µM [inhibitor, partial curve, poor fit] | –
Cc1cc(C)n2c(SCC(=O)N(CCC#N)c3ccc4c(c3)OCCO4)nnc2n1 | active: 20 µM | –
CN1CCN(C(=S)SCC(=O)Nc2nc(-c3ccccc3)c(-c3ccccc3)o2)CC1 | inconclusive: 0.355 µM [inhibitor, full curve, poor fit] | –
Cc1ccccc1NS(=O)(=O)c1ccc(C(=O)NCC(c2ccco2)N(C)C)cc1 (centres undefined) | inconclusive: 35.5 µM [inhibitor, partial curve, poor fit] | –
COc1cccc(-n2cc(C(=O)OCc3ccc(Cl)cc3)c3ccccc3c2=O)c1 | – | inactive: -9.13%
O=C(O)c1ccc2c(c1)C(=O)N(c1cccc(C(=O)/C=C/c3ccccc3)c1)C2=O | active: 31.6 µM | –
COCCCC1CCN(C(=O)C2CCC(=O)N(CCc3cccc(F)c3)C2)CC1 (centres undefined) | inconclusive: 89.1 µM [inhibitor, partial curve, poor fit] | –
Cc1ccc(C)c(S(=O)(=O)Nc2ccccc2C(=O)Nc2ccc(S(=O)(=O)Nc3ncccn3)cc2)c1 | inconclusive: 22.4 µM [inhibitor, partial curve, poor fit] | –
N=c1c(S(=O)(=O)c2ccc(Cl)cc2)cc2c(=O)n3ccccc3nc2n1CCN1CCOCC1 | inconclusive: 28.2 µM [inhibitor, single point] | –
CCN(CC)S(=O)(=O)c1ccc2[nH]cc(C(=O)NCCc3ccccc3)c(=O)c2c1 | inconclusive: 39.8 µM [inhibitor, single point] | –
CCOC(=O)c1c(S(=O)(=O)NCC(=O)Nc2ccc(F)cc2C)c(C)n(C)c1C | active: 79.4 µM | –

SMILES | Potency | activity change, negative = inhibition
COc1ccc(C(=O)NC2CC(C)(C)Cc3c2cnn3-c2ccccc2)c(OC)c1 (centres undefined) | inconclusive: 79.4 µM [inhibitor, partial curve, poor fit] | –
Cc1ccc(C(=O)OCC(=O)NNC(=O)c2ccc([N+](=O)[O-])cc2)o1 | inconclusive: 35.5 µM [inhibitor, partial curve, poor fit] | –
Cc1ccc(NC(=S)NCCCN2CCOCC2)cc1 | – | inactive: -14.3%
CCOc1ccc(NC(=O)Cn2nnc(C(=O)NCCc3ccccc3)c2N)cc1 | inconclusive: 89.1 µM [inhibitor, partial curve, poor fit] | –
Cc1nc2scc(-c3ccco3)c2c(=O)n1/N=C/N(C)C | inconclusive: 79.4 µM [inhibitor, partial curve] | –
CCC1=Nc2cc(C(=O)NCc3ccco3)ccc2Sc2ccc(Cl)cc21 | inconclusive: 35.5 µM [inhibitor, partial curve, poor fit] | –
Cc1ccccc1C(=O)Nc1ccccc1C(=O)NCc1ccccc1 | inconclusive: 39.8 µM [inhibitor, partial curve, poor fit] | –
CC(C)NC(=O)COC(=O)c1ccc(Cl)c(S(=O)(=O)N2CCCC2)c1 | inconclusive: 28.2 µM [inhibitor, single point] | –
Nc1nonc1-c1nc2ccccc2n1CC(=O)Nc1ccccc1 | – | inactive: 11.6%
CC(C)CCN(CC(=O)NCc1ccc(F)cc1)S(=O)(=O)c1ccccc1F | – | inactive: -16.3%
COc1ccccc1NC(=O)COc1ccc(/C=N/NC(=O)CSCc2cc(C)cc(C)c2)cc1 | inconclusive: 25.1 µM [inhibitor, partial curve, poor fit] | –
Cc1ccc(C)c(-n2cc(-c3ccccc3)nc2SCC(=O)Nc2ccccc2)c1 | – | inactive: -11.8%
Cc1ccc(S(=O)(=O)Oc2ccc(/C=C3/C(=N)N4C(=NC3=O)SN=C4S(C)(=O)=O)cc2)cc1 | active: 28.2 µM | –
O=C(Oc1ccc(OC(=O)c2ccco2)c(S(=O)(=O)c2ccc(Cl)cc2)c1)c1ccco1 | inconclusive: 35.5 µM [inhibitor, partial curve, poor fit] | –
Cc1ccc2[nH]c3c(NCCN4CCOCC4)ncnc3c2c1 | inconclusive: 89.1 µM [inhibitor, partial curve, poor fit] | –
O=C(Cc1cccs1)Nc1ccc(C(=O)O)cc1 | inconclusive: 0.794 µM [inhibitor, full curve, poor fit] | –
Cc1ccc2scc(N3CCCCC3)c(=O)c2c1 | – | inactive: -16.8%
Nc1cc2c(cc1[N+](=O)[O-])-c1ccccc1C2=NO | inconclusive: 11.2 µM [inhibitor, partial curve, poor fit] | –
CCc1nn(CC(=O)NCCCc2ccccc2)c(=O)c2cc3c(OC)cccc3n12 | inconclusive: 2.82 µM [inhibitor, full curve, poor fit] | –
CC1=NN(c2ccccc2)C(=O)/C1=C/C=C/c1ccccc1 | active: 15.8 µM | –
C=CC(=O)Nc1ccc(Nc2ccnc(Nc3ccc(N4CCN(C)CC4)cc3)n2)cc1 | inconclusive: 63.1 µM [inhibitor, partial curve, poor fit] | –
O=C(NC1CC1)c1ccc(COc2ccc(F)cc2)o1 | inconclusive: 39.8 µM [inhibitor, partial curve, poor fit] | –

SMILES | Potency | activity change, negative = inhibition
Cc1cc2nc3s/c(=C/c4ccc(-c5ccccc5C(=O)O)o4)c(=O)n3c2cc1C | active: 25.1 µM | –
CCNc1nc(NCC)n2c(SCC(=O)Nc3ccc(F)cc3)nnc2n1 | active: 14.1 µM | –
O=C(NN1C(=O)/C(=C/c2ccc(O)cc2)SC1=S)c1cccc(O)c1 | – | inactive: 2.92%
CCn1cc(C(=O)NCc2ccco2)c(=O)c2cc(F)c(N3CCN(C(=O)c4ccco4)CC3)cc21 | inconclusive: 22.4 µM [inhibitor, partial curve] | –
O=C(CCc1ccc(O)c(O)c1)N/N=C/c1cc2c(cc1[N+](=O)[O-])OCO2 | active: 17.8 µM | –
O=C(Nc1ccc([N+](=O)[O-])cc1Cl)c1cccc([N+](=O)[O-])c1 | inconclusive: 39.8 µM [inhibitor, partial curve, poor fit] | –
O=C(NC(=S)Nc1cccc([N+](=O)[O-])c1)c1ccco1 | – | inactive: -7.69%
O=C(Nc1ccccc1N1CCOCC1)c1ccc(Cl)c(S(=O)(=O)N2CCCC2)c1 | inconclusive: 22.4 µM [inhibitor, partial curve, poor fit] | –
O=C1/C(=C\c2ccc(O)cc2)SC(=S)N1c1cccnc1 | inconclusive: 35.5 µM [inhibitor, partial curve, poor fit] | –
COc1ccc(C(=O)CCC(=O)Nc2cccnc2)cc1 | inconclusive: 100 µM [inhibitor, single point] | –
O=C(c1ccc(-c2nnc(Nc3cccc(Cl)c3)c3ccccc23)cc1)N1C[C@H]2C[C@H](C1)c1cccc(=O)n1C2 | inconclusive: 22.4 µM [inhibitor, full curve] | –
CCn1c2ccc(C)cc2c2nc3cc(C(=O)O)ccc3nc21 | inconclusive: 17.8 µM [inhibitor, full curve, poor fit] | –
CCOc1cc(C2NC(=O)c3c(sc4c3CCN(C)C4)N2)ccc1OC(=O)c1ccccc1Cl (centres undefined) | – | inactive: -16.2%
O=C(CN1CCN(c2ccccn2)CC1)Nc1cc(C(F)(F)F)ccc1Cl | inconclusive: 79.4 µM [inhibitor, partial curve, poor fit] | –
Cc1ccc2[nH]c(C(=O)Nc3ccccc3)cc2c1 | – | inactive: -22.2%
COc1cc(/C=N/Nc2ncnc3sc4c(c23)CCC4)ccc1O | inconclusive: 20 µM [inhibitor, partial curve, poor fit] | –
Cc1ccc2nc(NC(=O)CN(C)S(=O)(=O)c3ccc(Br)s3)sc2c1 | inconclusive: 79.4 µM [inhibitor, partial curve, poor fit] | –
Cc1ccccc1Nc1cc2ccccc2c(=O)[nH]1 | active: 11.2 µM | –
COc1ccc(-c2nsc3c(N4CCCC4)ncnc23)cc1 | – | inactive: 5.41%
CCCCC[C@@H]1C=C(C(=O)O)[C@H](c2ccc(Cl)c(Cl)c2)N1S(=O)(=O)c1ccc(C)cc1 | inconclusive: 89.1 µM [inhibitor, partial curve, poor fit] | –
